Literature values as cited in patent publication US9850475B2 (priority 2011, dated 2017).

Conditions: negatively charged side chain

N[C@@H](CS(=O)(=O)O)C(=O)O [cysteic acid]
pKa of side chain: 1.9
